# Laboratory results from the supplement of paper PMC8728848.
# The other results are listed elsewhere or left out.
# B1: LecRKVI.2 (protein)
# chain: RTTTNFAFRGFNGNQSKIRIEGAAMIKPDGLLRLTDRKSNVTGTAFYHKPVRLLNRNSTNVTIRSFSTSFVFVIIPSSSSNKGFGFTFTLSPTPYRLNAGSAQYLGVFNKENNGDPRNHVFAVEFDTVQGSRDDNTDRIGNDIGLNYNSRTSDLQEPVVYYNNDDHNKKEDFQLESGNPIQALLEYDGATQMLNVTVYPARLGFKPTKPLISQHVPKLLEIVQEEMYVGFTASTGKGQSSAHYVMGWSFSSGGERPIADVLILSELPPPPPNKAKKEGLNS
# Key:
# Experiment in all cases: glycan array binding signal (z-score within array); higher = stronger binding
# Conditions in all cases: glycan notation: IUPAC condensed, linker removed
# [1] = target: GalNAc3S(b1-4)[Fuc(a1-3)]GlcNAc
# Outline: (§1)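 The Consortium for Functional Glycomics database supplied 3228 glycan arrays, of which those lacking an available protein sequence were dropped. The binding signal, a within-array Z-score, was averaged across arrays of the same protein sequence and across linkers. Negative scores can be read as non-binding.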
# [2] = target: GalNAc4S6S(b1-4)GlcNAc
# Outline: as §1
# [3] = target: GalNAc6S(b1-4)GlcNAc
# Outline: as §1
# [4] = target: Glc(a1-4)Glc
# Outline: as §1
# [5] = target: Glc(a1-4)Glc(a1-4)Glc(a1-4)Glc
# Outline: as §1
# [6] = target: Glc(a1-6)Glc(a1-6)Glc
# Outline: as §1
# [7] = target: Glc(a1-6)Glc(a1-6)Glc(a1-6)Glc
# Outline: as §1
# [8] = target: Glc(b1-4)Glc
# Outline: as §1
# [9] = target: Glc(b1-6)Glc
# Outline: as §1
# [10] = target: GlcA(b1-3)Gal
# Outline: as §1
# [11] = target: GlcA(b1-3)GlcNAc
# Outline: as §1
# [12] = target: GlcA(b1-6)Gal
# Outline: as §1
# [13] = target: GlcA3S(b1-3)Gal(b1-4)GlcNAc(b1-2)Man
# Outline: as §1
# [14] = target: GlcA3S(b1-3)Gal(b1-4)GlcNAc(b1-3)Gal(b1-4)Glc
# Outline: as §1
# [15] = target: GlcNAc(a1-3)Gal(b1-4)GlcNAc
# Outline: as §1
# [16] = target: GlcNAc(a1-4)Gal(b1-3)GlcNAc
# Outline: as §1
# [17] = target: GlcNAc(a1-4)Gal(b1-4)GalNAc
# Outline: as §1
# [18] = target: GlcNAc(a1-4)Gal(b1-4)GlcNAc
# Outline: as §1
# [19] = target: GlcNAc(a1-4)Gal(b1-4)GlcNAc(b1-3)Gal(b1-4)Glc
# Outline: as §1
# [20] = target: GlcNAc(a1-4)Gal(b1-4)GlcNAc(b1-3)Gal(b1-4)GlcNAc
# Outline: as §1
# [21] = target: GlcNAc(a1-4)Gal(b1-4)GlcNAc(b1-3)Gal(b1-4)GlcNAc(b1-3)Gal(b1-4)GlcNAc
# Outline: as §1
# [22] = target: GlcNAc(a1-4)Gal(b1-4)GlcNAc(b1-3)Gal(b1-4)[Fuc(a1-3)]GlcNAc(b1-3)Gal(b1-4)[Fuc(a1-3)]GlcNAc
# Outline: as §1
# [23] = target: GlcNAc(a1-6)Gal(b1-4)GlcNAc
# Outline: as §1
# [24] = target: GlcNAc(b1-2)Gal(b1-3)GalNAc
# Outline: as §1
# [25] = target: GlcNAc(b1-2)Man(a1-3)[GlcNAc(b1-2)Man(a1-6)]Man(b1-4)GlcNAc(b1-4)GlcNAc
# Outline: as §1
# [26] = target: GlcNAc(b1-2)Man(a1-3)[GlcNAc(b1-2)Man(a1-6)]Man(b1-4)GlcNAc(b1-4)[Fuc(a1-6)]GlcNAc
# Outline: as §1
# [27] = target: GlcNAc(b1-2)Man(a1-3)[GlcNAc(b1-4)][GlcNAc(b1-2)Man(a1-6)]Man(b1-4)GlcNAc(b1-4)GlcNAc
# Outline: as §1
# [28] = target: GlcNAc(b1-2)Man(a1-3)[GlcNAc(b1-4)][GlcNAc(b1-2)Man(a1-6)]Man(b1-4)GlcNAc(b1-4)[Fuc(a1-6)]GlcNAc
# Outline: as §1
# [29] = target: GlcNAc(b1-2)[GlcNAc(b1-4)]Man(a1-3)[GlcNAc(b1-2)Man(a1-6)]Man(b1-4)GlcNAc(b1-4)GlcNAc
# Outline: as §1
# [30] = target: GlcNAc(b1-2)[GlcNAc(b1-4)]Man(a1-3)[GlcNAc(b1-4)][GlcNAc(b1-2)Man(a1-6)]Man(b1-4)GlcNAc(b1-4)GlcNAc
# Outline: as §1
# [31] = target: GlcNAc(b1-2)[GlcNAc(b1-4)]Man(a1-3)[GlcNAc(b1-4)][GlcNAc(b1-2)[GlcNAc(b1-6)]Man(a1-6)]Man(b1-4)GlcNAc(b1-4)GlcNAc
# Outline: as §1
# [32] = target: GlcNAc(b1-2)[GlcNAc(b1-4)]Man(a1-3)[GlcNAc(b1-4)][GlcNAc(b1-2)[GlcNAc(b1-6)]Man(a1-6)]Man(b1-4)GlcNAc(b1-4)[Fuc(a1-6)]GlcNAc
# Outline: as §1
# [33] = target: GlcNAc(b1-2)[GlcNAc(b1-6)]Man(a1-6)[GlcNAc(b1-2)Man(a1-3)]Man(b1-4)GlcNAc(b1-4)GlcNAc
# Outline: as §1
# [34] = target: GlcNAc(b1-2)[GlcNAc(b1-6)]Man(a1-6)[GlcNAc(b1-2)Man(a1-3)]Man(b1-4)GlcNAc(b1-4)[Fuc(a1-6)]GlcNAc
# Outline: as §1
# [35] = target: GlcNAc(b1-2)[GlcNAc(b1-6)]Man(a1-6)[GlcNAc(b1-4)][GlcNAc(b1-2)Man(a1-3)]Man(b1-4)GlcNAc(b1-4)GlcNAc
# Outline: as §1
# [36] = target: GlcNAc(b1-3)Fuc
# Outline: as §1
# [37] = target: GlcNAc(b1-3)Gal
# Outline: as §1
# [38] = target: GlcNAc(b1-3)Gal(b1-3)GalNAc
# Outline: as §1
binder,measurement,setting,value
B1,glycan array binding signal (z-score),[1],-0.345
same,glycan array binding signal (z-score),[2],-0.338
same,glycan array binding signal (z-score),[3],0.133
same,glycan array binding signal (z-score),[4],-0.353
same,glycan array binding signal (z-score),[5],-0.441
same,glycan array binding signal (z-score),[6],-0.423
same,glycan array binding signal (z-score),[7],-0.344
same,glycan array binding signal (z-score),[8],-0.292
same,glycan array binding signal (z-score),[9],-0.209
same,glycan array binding signal (z-score),[10],-0.486
same,glycan array binding signal (z-score),[11],-0.382
same,glycan array binding signal (z-score),[12],-0.282
same,glycan array binding signal (z-score),[13],-0.393
same,glycan array binding signal (z-score),[14],-0.486
same,glycan array binding signal (z-score),[15],-0.415
same,glycan array binding signal (z-score),[16],-0.395
same,glycan array binding signal (z-score),[17],-0.337
same,glycan array binding signal (z-score),[18],-0.231
same,glycan array binding signal (z-score),[19],-0.446
same,glycan array binding signal (z-score),[20],-0.353
same,glycan array binding signal (z-score),[21],-0.386
same,glycan array binding signal (z-score),[22],0.026
same,glycan array binding signal (z-score),[23],-0.32
same,glycan array binding signal (z-score),[24],-0.006
same,glycan array binding signal (z-score),[25],-0.271
same,glycan array binding signal (z-score),[26],-0.243
same,glycan array binding signal (z-score),[27],-0.349
same,glycan array binding signal (z-score),[28],-0.352
same,glycan array binding signal (z-score),[29],-0.464
same,glycan array binding signal (z-score),[30],-0.397
same,glycan array binding signal (z-score),[31],0.257
same,glycan array binding signal (z-score),[32],-0.33
same,glycan array binding signal (z-score),[33],-0.329
same,glycan array binding signal (z-score),[34],-0.29
same,glycan array binding signal (z-score),[35],-0.379
same,glycan array binding signal (z-score),[36],-0.233
same,glycan array binding signal (z-score),[37],-0.322
same,glycan array binding signal (z-score),[38],-0.282
